{"source": "the supplement of paper PMC3334620", "note": "Whole data set: some 33,000 sequences, median “E-score (-0.5 to 0.5)” near -0.01, cut for the highest 2% near 0.26. Some of the results follow.", "data": [{"molecular_target": "Ste12 (UniProt P13574)", "experiment": "PBM E-score (8-mer binding enrichment) (E-score (-0.5 to 0.5)); higher = stronger / more preferred TF binding; most listed sequences are background and not binding sites", "details": "protein concentration: 200 nM; construct: GST-DNA-binding domain", "procedure": "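Universal 'all 10-mer' protein binding microarrays (Agilent AMADID 015681) probed with GST-tagged S. cerevisiae TFs (full-length or DBD) made by in vitro transcription/translation (PURExpress), about 100-200 nM. Bound TF was detected with fluorescent anti-GST. Each ungapped 8-mer (which stands for itself and its reverse complement) is scored by the PBM enrichment score (E-score), a modified Wilcoxon-Mann-Whitney statistic from -0.5 to +0.5, computed with the Universal PBM Analysis Suite. Scale: above 0.35 generally sequence-specific binding.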", "values": [{"sequence": "CAGGTAGC", "PBM E-score": -0.26}, {"sequence": "ACACCGTA", "PBM E-score": -0.0259}, {"sequence": "ACTTCGCA", "PBM E-score": -0.0371}, {"sequence": "ATCATCAC", "PBM E-score": 0.12}, {"sequence": "CCGTAGCG", "PBM E-score": -0.0386}, {"sequence": "TAATTGTA", "PBM E-score": 0.232}, {"sequence": "AGAACCTC", "PBM E-score": -0.112}, {"sequence": "CTGGGGAA", "PBM E-score": -0.235}, {"sequence": "ACTAACAA", "PBM E-score": 0.0251}, {"sequence": "TCCAACAA", "PBM E-score": -0.0926}, {"sequence": "TAGTAGGA", "PBM E-score": -0.0533}, {"sequence": "GCTTTGAC", "PBM E-score": 0.0316}, {"sequence": "ACCGGGCC", "PBM E-score": -0.0251}, {"sequence": "ACCGACAC", "PBM E-score": -0.114}, {"sequence": "AGGTATAC", "PBM E-score": -0.0236}, {"sequence": "GACGTATC", "PBM E-score": -0.0828}, {"sequence": "CAATCTCG", "PBM E-score": -0.07}, {"sequence": "AAGGACGA", "PBM E-score": -0.0886}, {"sequence": "ATGCTCCA", "PBM E-score": 0.0506}, {"sequence": "GAATTCGC", "PBM E-score": 0.0223}, {"sequence": "AAAAGAGG", "PBM E-score": -0.114}, {"sequence": "CGACGCCG", "PBM E-score": 0.123}, {"sequence": "GCAAACGC", "PBM E-score": 0.114}, {"sequence": "AGATGACT", "PBM E-score": -0.0593}, {"sequence": "AATATTCG", "PBM E-score": -0.0132}, {"sequence": "AGGCCTCG", "PBM E-score": -0.181}, {"sequence": "GACGTGCA", "PBM E-score": -0.117}, {"sequence": "CCCTACCC", "PBM E-score": -0.038}, {"sequence": "AGCCTACT", "PBM E-score": -0.155}, {"sequence": "CCTACGCA", "PBM E-score": -0.236}, {"sequence": "GCCATCAA", "PBM E-score": -0.106}, {"sequence": "CGTCTTCC", "PBM E-score": 0.0142}, {"sequence": "TAACTTGA", "PBM E-score": 0.0401}, {"sequence": "AACCTCGC", "PBM E-score": -0.0929}, {"sequence": "CCCTCCAG", "PBM E-score": 0.153}, {"sequence": "GACCGAGA", "PBM E-score": 0.054}, {"sequence": "GTTGCCGA", "PBM E-score": 0.125}, {"sequence": "AAGCGTCG", "PBM E-score": -0.123}, {"sequence": "ATCGTCCC", "PBM E-score": 0.0346}, {"sequence": "AATATAAT", "PBM E-score": 0.138}, {"sequence": "CCGACGAC", "PBM E-score": 0.0401}, {"sequence": "ACCACAAA", "PBM E-score": 0.193}, {"sequence": "CCTTAGAC", "PBM E-score": 0.00298}, {"sequence": "AGGCAGCA", "PBM E-score": 0.0458}, {"sequence": "AAGGTGAT", "PBM E-score": 0.0331}, {"sequence": "CGTGCCAG", "PBM E-score": -0.218}, {"sequence": "CTCCATTA", "PBM E-score": 0.0478}, {"sequence": "ACCAAATA", "PBM E-score": 0.151}, {"sequence": "CGCCACGA", "PBM E-score": 0.0187}, {"sequence": "GCCTGCAC", "PBM E-score": -0.209}, {"sequence": "ACGCGGGA", "PBM E-score": 0.0285}, {"sequence": "ACTTTGTG", "PBM E-score": -0.0599}, {"sequence": "GTTACATA", "PBM E-score": 0.215}, {"sequence": "CGTCTACA", "PBM E-score": -0.157}, {"sequence": "AACGGATG", "PBM E-score": 0.0467}, {"sequence": "GTTCGGTA", "PBM E-score": 0.0162}, {"sequence": "TGGCCGAA", "PBM E-score": 0.0844}, {"sequence": "CTCTCATA", "PBM E-score": -0.0984}, {"sequence": "CCAACATA", "PBM E-score": 0.149}, {"sequence": "CAAGTCTG", "PBM E-score": -0.0972}, {"sequence": "CCCTAAGC", "PBM E-score": -0.147}, {"sequence": "CGTGCGCA", "PBM E-score": 0.0233}, {"sequence": "CAGGGTGA", "PBM E-score": -0.104}, {"sequence": "CGATGCTA", "PBM E-score": -0.0117}, {"sequence": "CATGACAC", "PBM E-score": 0.176}, {"sequence": "CAGCATTC", "PBM E-score": -0.0383}, {"sequence": "ATCTGAAC", "PBM E-score": -0.0162}, {"sequence": "ACTTCTGG", "PBM E-score": -0.0906}, {"sequence": "AGTCGCTC", "PBM E-score": -0.14}, {"sequence": "CGATGCTC", "PBM E-score": -0.0221}, {"sequence": "TCACTGCA", "PBM E-score": 0.0135}, {"sequence": "TAAACGGA", "PBM E-score": 0.126}, {"sequence": "AGCCACAG", "PBM E-score": -0.256}, {"sequence": "GAAGTAGA", "PBM E-score": -0.129}, {"sequence": "ACAAGCAT", "PBM E-score": 0.059}, {"sequence": "ATGCTGAC", "PBM E-score": 0.00523}, {"sequence": "ACAAAAAG", "PBM E-score": 0.125}, {"sequence": "CCCCTACC", "PBM E-score": 0.0111}, {"sequence": "CAATTCCA", "PBM E-score": 0.17}, {"sequence": "ATCTACAC", "PBM E-score": 0.0258}, {"sequence": "CCCGATAG", "PBM E-score": 0.0566}, {"sequence": "ACTTTGTA", "PBM E-score": 0.0194}, {"sequence": "CGGCCTAC", "PBM E-score": -0.0855}, {"sequence": "CGTTATGC", "PBM E-score": -0.0583}, {"sequence": "CTTACTGA", "PBM E-score": -0.0791}, {"sequence": "CCCTACTA", "PBM E-score": -0.149}, {"sequence": "GATATGTA", "PBM E-score": 0.0692}, {"sequence": "CAGCAAAC", "PBM E-score": 0.0674}, {"sequence": "CATTGAAG", "PBM E-score": -0.0309}, {"sequence": "TTAGCGAA", "PBM E-score": 0.118}, {"sequence": "CGGCTCGC", "PBM E-score": 0.0418}, {"sequence": "AATAAGAT", "PBM E-score": 0.00235}, {"sequence": "TAGCGTGA", "PBM E-score": 0.0157}, {"sequence": "TGGGTACA", "PBM E-score": -0.0266}, {"sequence": "ATCATTTG", "PBM E-score": 0.0263}, {"sequence": "GGGTAATA", "PBM E-score": 0.109}, {"sequence": "ACTTTTAT", "PBM E-score": 0.125}, {"sequence": "CGATACGA", "PBM E-score": -0.184}, {"sequence": "AACCAGAA", "PBM E-score": 0.0614}, {"sequence": "GAAAGTGA", "PBM E-score": -0.111}, {"sequence": "ACTAGGAC", "PBM E-score": -0.151}, {"sequence": "AACTCTGA", "PBM E-score": 0.193}, {"sequence": "AGATCTTG", "PBM E-score": 0.0474}, {"sequence": "AGCGCAAT", "PBM E-score": 0.012}, {"sequence": "CTGAATTA", "PBM E-score": 0.116}, {"sequence": "CTGCTAGC", "PBM E-score": -0.206}, {"sequence": "AAATTACT", "PBM E-score": 0.107}, {"sequence": "CCGACCAC", "PBM E-score": 0.117}, {"sequence": "ATTGTCTG", "PBM E-score": 0.128}, {"sequence": "ATGGTCGG", "PBM E-score": 0.098}, {"sequence": "AGTACCGC", "PBM E-score": 0.0363}, {"sequence": "GTGCACAA", "PBM E-score": -0.159}, {"sequence": "AAGTCCGT", "PBM E-score": -0.253}, {"sequence": "GGTTTAAA", "PBM E-score": 0.211}, {"sequence": "ACGTCGAA", "PBM E-score": 0.13}, {"sequence": "CAGAAAGC", "PBM E-score": 0.104}, {"sequence": "CAATATAG", "PBM E-score": 0.117}, {"sequence": "CTGCACTA", "PBM E-score": -0.0597}, {"sequence": "AGGCATAA", "PBM E-score": 0.00844}, {"sequence": "AATAATTG", "PBM E-score": 0.18}, {"sequence": "CAAGCACA", "PBM E-score": -0.12}, {"sequence": "ACCTCCGC", "PBM E-score": -0.00893}, {"sequence": "CAGACCAA", "PBM E-score": -0.0983}, {"sequence": "CAAGGTTA", "PBM E-score": -0.0446}, {"sequence": "ATAACGAA", "PBM E-score": 0.0476}, {"sequence": "CCGTACGG", "PBM E-score": -0.159}, {"sequence": "AAAGTATA", "PBM E-score": 0.222}, {"sequence": "ACAGTGGG", "PBM E-score": -0.0947}, {"sequence": "CTTGTTCA", "PBM E-score": -0.105}, {"sequence": "CAACAGGG", "PBM E-score": 0.144}, {"sequence": "AACGGCGG", "PBM E-score": -0.0152}, {"sequence": "AGCGACCG", "PBM E-score": -0.185}, {"sequence": "TCACAGCA", "PBM E-score": 0.141}, {"sequence": "GAGATCAC", "PBM E-score": -0.125}, {"sequence": "AGAAGTAC", "PBM E-score": -0.173}, {"sequence": "AAAGTAAT", "PBM E-score": 0.247}, {"sequence": "AACACACA", "PBM E-score": 0.236}, {"sequence": "TGCGCAAA", "PBM E-score": -0.134}, {"sequence": "GAATTAGC", "PBM E-score": 0.084}, {"sequence": "GCGGTACC", "PBM E-score": 0.0146}, {"sequence": "TGCCAGCA", "PBM E-score": 0.0672}, {"sequence": "GTCGTGAA", "PBM E-score": -0.187}, {"sequence": "CATCATAA", "PBM E-score": 0.121}, {"sequence": "AACGGCCC", "PBM E-score": -0.102}, {"sequence": "CCAGAAAA", "PBM E-score": 0.176}, {"sequence": "CTAATGAC", "PBM E-score": -0.141}, {"sequence": "CCGTGGTA", "PBM E-score": -0.178}, {"sequence": "ATCGTGAA", "PBM E-score": 0.089}, {"sequence": "ACGGTATC", "PBM E-score": -0.0409}, {"sequence": "CAGTAAAA", "PBM E-score": 0.208}, {"sequence": "CCTTTAGA", "PBM E-score": -0.0422}, {"sequence": "CAACAACG", "PBM E-score": 0.0265}, {"sequence": "CCGATAGA", "PBM E-score": 0.0948}, {"sequence": "AATGATAT", "PBM E-score": 0.113}, {"sequence": "GTGCCTAA", "PBM E-score": -0.26}, {"sequence": "GACGGCTA", "PBM E-score": -0.12}, {"sequence": "AGGGACAT", "PBM E-score": 0.0172}, {"sequence": "AGAATAAA", "PBM E-score": 0.204}, {"sequence": "ACAGAGTG", "PBM E-score": -0.184}, {"sequence": "ATGCGTCG", "PBM E-score": 0.00383}, {"sequence": "TAAGAATA", "PBM E-score": 0.196}, {"sequence": "GCAAAATA", "PBM E-score": 0.226}, {"sequence": "CATGCCCG", "PBM E-score": -0.031}, {"sequence": "CGCAATGA", "PBM E-score": 0.0826}, {"sequence": "ATCAGTAA", "PBM E-score": 0.154}, {"sequence": "CTTCTTCA", "PBM E-score": 0.00129}, {"sequence": "GGTCGACC", "PBM E-score": 0.0772}, {"sequence": "GCAATAGC", "PBM E-score": 0.00424}, {"sequence": "CTATTCGC", "PBM E-score": 0.0141}, {"sequence": "GTAATCAA", "PBM E-score": 0.0538}, {"sequence": "AAGGGGTC", "PBM E-score": -0.234}, {"sequence": "GCAGACGC", "PBM E-score": -0.0476}]}]}
